Values joined by “and” are separate entries in the source; they are usually repeats but may differ in a detail not shown here. Equal values may be shown once.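 Method: 48-hour compound exposure of cells in 96-well plates, five concentrations, linear interpolation of endpoints. Abbreviation: GI50, concentration required for 50% inhibition of growth. TGI marks complete inhibition of growth.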 Peptide text beside a SMILES is read from it.
System: NCI-H322M lung
Experiment: NCI tumour cell line growth inhibition, 48 h

Row | SMILES | TGI | GI50
1 | O=c1[nH]nc(Cc2ccccc2)n1/N=C/c1c[nH]c2ccccc12 | > 100 µM | –
2 | CC1=C(C(=O)Nc2ccccc2C)C(c2ccccc2)C(C(=O)Nc2ccccc2C)=C(C)N1 | > 100 µM | –
3 | O=C(CCCCCCSc1nc(-c2ccccc2)cc(-c2ccc(Cl)cc2)n1)NO | 11.9 µM | 2.57 µM
4 | CNc1ccc2nc3ccc(=[N+](C)C)cc-3sc2c1 | 22.6 µM and 14.8 µM | 5.12 µM and 2.75 µM
5 | O=[N+]([O-])C1C(c2ccccc2)C12c1ccccc1-c1ccccc12 (stereo not drawn) | 56.1 µM | 5.38 µM
6 | COc1ccc2c(c1)O[C@@H]1C(O)Oc3cc(OC)c(OC)cc3[C@]1(O)C2=O (stereo partly drawn) | > 100 µM | –
7 | O=C1C(=O)N(C(=O)c2ccc(Cl)c(Cl)c2)c2ccccc21 | > 100 µM | –
8 | Cc1ccc(CNc2c3ccccc3nc3ccccc23)cc1 | 5.89 µM | 2.09 µM
9 | Cc1nc2c(nc1C)C(=O)c1cc(O)ccc1C2=O | > 100 µM | –
10 | CCNC(=O)Nc1cccc(C)n1 | > 100 µM | –
11 | COc1ccc(N2C=Nn3c(nc4sc(C)c(C)c4c3=O)C2)cc1 | > 100 µM | –
12 | C[C@@H]1C[C@@H](O)[C@]2(O)O[C@@H]3C[C@@]4(C=O)[C@@H](CC[C@@H]5[C@@H]4CC[C@]4(C)[C@@H](C6=CC(=O)OC6)CC[C@]54O)C[C@H]3O[C@@H]2O1 | 0.0861 µM and 0.138 µM | –
13 | COc1ccc2c(c1)/C(=C\c1c(C)nc3sc(C)cn13)C(=O)N2C | 52.6 µM | 7.11 µM
14 | CC(=O)C1CC(C)=CCC12C(=O)Nc1ccccc12 (stereo not drawn) | > 100 µM | –
15 | O=C(Nc1ccccc1)O/N=C(/CBr)c1ccccc1 | 42.9 µM | –
16 | COc1ccc(C(=O)/C(Br)=C/C(=O)O)cc1 | 158 µM and 233 µM | –
17 | COc1cc2c(cc1OC)C(=O)/C(=C/c1cccc(OCC(=O)c3ccccc3)c1)C2 | > 100 µM | 43.6 µM
18 | O=C(CCCn1cnc([N+](=O)[O-])n1)NCCn1ccnc1[N+](=O)[O-] | > 100 µM | –
19 | CC1=C(C)C(=O)c2c(cc3ccc4ccccc4n23)C1=O | > 100 µM | –
20 | CC(C)(NC(=O)OCc1ccccc1)C(=O)NC(Cc1ccccc1)C(=O)O (stereo not drawn) (HELM PEPTIDE1{[O=C(OCc1ccccc1)[*:2]].[Aib].[O=C(O)C(Cc1ccccc1)N[*:1]]}$$$$V2.0) | > 100 µM | –
21 | O=C1C(Br)=CC2([N+](=O)[O-])CCNc3c(O)c4c5c(c3C2=C1Br)=NCCC=5C=N4 (stereo not drawn) | 6.05 µM | –
22 | COC1=CC(=O)c2ccccc2C1(CCC=C(C)C)C1=NC(C)(C)CO1 (stereo not drawn) | > 100 µM | –
23 | OC(C1CCC=NN1C(O)(C(F)(F)F)C(F)(F)F)(C(F)(F)F)C(F)(F)F (stereo not drawn) | > 10 µM | –
24 | Cc1ccc(-[n+]2c3cc(N)c(C)cc3nc3cc(C)c(Nc4ccccc4)cc32)cc1 | 0.915 µM | 0.241 µM
25 | Cc1cc(C)nc(NS(=O)(=O)c2ccc(Nc3c4ccccc4nc4c(C(=O)Nc5ccc(S(=O)(=O)N=C(N)N)cc5)ccc(Cl)c34)cc2)n1 | 55.3 µM | –

Row | SMILES | TGI | GI50
26 | COc1nc(N(C)O)nc(N(C)O)n1 | > 100 µM | 0.752 µM
27 | O=C(c1ccc(Cl)cc1)c1ccc(OCC(=O)N2CCN(c3ccccc3)CC2)cc1 | > 100 µM | –
28 | Cc1c(C)c(C)c(-n2[nH]c(=O)n(C)c2=O)c(C)c1C | > 100 µM | –
29 | Cc1ccc(C(=O)OC[C@H]2CC[C@@H](n3cc(N(C)C4CCCCC4)c(=O)[nH]c3=O)O2)cc1 | > 100 µM | –
30 | O=c1oc2cc(OS(=O)(=O)c3ccc(F)cc3)ccc2c2c1CCCCC2 | > 100 µM | > 100 µM
31 | CCCCCc1cc(OC(=O)c2c(O)cc(OC)cc2CCCCC)cc(O)c1C(=O)O | 31.1 µM | –
32 | CCOc1cc2ncc(C#N)c(Nc3ccc(OCc4cccc(F)c4)c(Cl)c3)c2cc1NC(=O)CC1CCSS1 (stereo not drawn) | 2 µM | 0.6 µM
33 | CC(C)(CN)CN | > 100 µM | –
34 | Cn1c2c(c3ccccc31)CCN(CCCCN1CCc3c(n(C)c4ccccc34)C1=O)C2 | > 100 µM | –
35 | Cc1nc2ccc(S(=O)(=O)Nc3ccc(Cl)cc3)cc2c(=O)n1NC(=O)CNc1ccc(Cl)cc1 | > 100 µM | –
36 | CCOc1ccccc1NC(=O)C(=O)CC(=O)c1c(C)n([O-])c2ccccc2[n+]1=O | > 100 µM | –
37 | CCC(C)[C@H](NC(=O)N[C@H](C)c1ccccc1)C(=O)OC (stereo partly drawn) | > 100 µM | –
38 | COC(=O)C12Oc3ccc(-c4ccc5c(c4O)C(=O)C4=CCC(C)C(O)C4(C(=O)OC)O5)c(O)c3C(=O)C1=CCC(C)C2O (stereo not drawn) | 13.4 µM | –
39 | CCOC(=O)c1ccc(NC(=O)N2CC(C)OC(C)C2)cc1 (stereo not drawn) | > 100 µM | > 100 µM
40 | COC(=O)/C=C/c1ccccc1N=[S@](C)(=O)c1ccc(C)cc1 | > 100 µM | –
41 | COC(=O)Cc1ccc2c(c1)Sc1ccc(CC(=O)OC)cc1N2C | > 100 µM | –
42 | CC(=O)Oc1ccc(/C=C/C(=O)O[C@@H](C)[C@H](C)OC(=O)/C=C/c2ccc(OC(C)=O)c(OC(C)=O)c2)cc1OC(C)=O | 61.2 µM | –
43 | CCOC(C[Se]CC(OCC)OCC)OCC | > 100 µM | –
44 | CCC(CCCN)Nc1cc(OC)cc2cccnc12 (stereo not drawn) | > 100 µM | –
45 | O=C(NCCN(CCNC(=O)c1cccc(=O)n1O)CCN(CCNC(=O)c1cccc(=O)n1O)CCNC(=O)c1cccc(=O)n1O)c1cccc(=O)n1O | > 100 µM | –
46 | O=P(O)(CCP(=O)(O)c1ccccc1)c1ccccc1 | > 100 µM | –
47 | CC1=C(C(=O)Nc2c(C)cccc2C)C(c2ccc3c(c2)OCO3)C(C(=O)Nc2c(C)cccc2C)=C(C)N1 | 26.7 µM | –
48 | COc1cc2c(cc1C[N+](C)(C)CSc1ccccc1)-c1ccccc1CC2 | 26.2 µM | –
49 | COc1cc2c3cc1Oc1c(O)c(OC)cc4c1[C@H](Cc1ccc(cc1)Oc1cc(ccc1O)C[C@H]3N(C)CC2)N(C)CC4 | 43.4 µM | –
50 | CC(C)Oc1c(-c2c(OC(C)C)c(=O)c2=O)c(=O)c1=O | > 100 µM | –

Row | SMILES | TGI | GI50
51 | Cc1cc2c(c(C#N)c1C)NC(=O)CCC2=O | > 100 µM | –
52 | CN(C)C(=S)N/N=C\C=N/NC(=S)N(C)C | > 100 µM | –
53 | Cc1ccc(OCC(=O)N2N=C(c3ccccc3)CC2(O)c2ccccc2)cc1 (stereo not drawn) | > 100 µM | –
54 | S=C1c2ccccc2NC(=NC2CCCC2)C2CSCN12 (stereo not drawn) | > 100 µM | –
55 | N#CC1=C2Sc3ccccc3N2[C@H](c2ccccc2)[C@H]2COC(=O)[C@@H]12 | > 100 µM | –
56 | c1ccc(CNc2c3c(nc4ccccc24)CCC3)cc1 | 46.7 µM | –
57 | CCOC(=O)/C(O)=C1\C(=O)N(C)C(=O)C1c1ccc(OC)c(OC)c1 (stereo not drawn) | > 100 µM | –
58 | COc1cc2c3c(n(C)c(=O)c2cc1OC)-c1cc2c(cc1/C3=C\CCCCCN)OCO2 | 41.4 µM | –
59 | COc1ccc2nc(N/N=C(\C)c3ccccn3)cc(C)c2c1 | 1.55 µM | 0.14 µM
60 | Cn1c(=O)c2c(nc(NCCCCl)n2CC(=O)O)n(C)c1=O | > 100 µM | –
61 | O=C(O)CSc1n[nH]c(-c2ccc(O)cc2)n1 | > 100 µM | –
62 | COc1ccc(N=C2CSc3nnc(-c4cc(F)c(Cl)cc4Cl)n3N2)cc1 | 36.9 µM | 4.92 µM
63 | COc1ccc(C2=C(OC(=O)N(C)C)c3cccn3-c3cc(C(F)(F)F)ccc3S2)cc1 | > 10 µM | –
64 | C=C1CC2(OC1=O)C(=O)N(CCCCCCCN1C(=O)C3(CC(=C)C(=O)O3)c3ccccc31)c1ccccc12 (stereo not drawn) | 20.3 µM | 8.21 µM
65 | COc1ccc2c3c1OC1CC(O)C=CC31CCN(C)C2 (stereo not drawn) | > 99.8 µM | –
66 | Cc1cnoc1NC1=CC(=O)C(=O)c2ccccc21 | > 100 µM | –
67 | O=C(c1ccccc1)C(C(=O)c1ccccc1)C1(O)C(=O)c2ccccc2C1=O | > 100 µM | –
68 | COc1cc(CCc2ccc(OCCN(C)C)cc2)cc(OC)c1OC | > 100 µM | –
69 | CC(C)(C)OC(=O)n1cc(C2CNC(=O)C23CCC(=O)N3Cc2ccccc2)c2ccccc21 (stereo not drawn) | > 100 µM | –
70 | CS(=O)(=O)CCNCc1nc(-c2ccc3ncnc(Nc4ccc(F)c(Cl)c4)c3c2)cs1 | > 25 µM | 0.304 µM
71 | CC(C)C[C@H](NC(=O)[C@H](Cc1cccc2ccccc12)NC(=O)N1CCOCC1)B(O)O | 0.207 µM and 0.184 µM | 0.0406 µM
72 | Oc1ccc(Cl)cc1C1=N/C(=N\CN2CCN(C/N=C3/N=C(c4cc(Cl)ccc4O)CC(c4ccccc4)N3)CC2)NC(c2ccccc2)C1 (stereo not drawn) | > 100 µM | –
73 | CN(C)c1ccc(N2C(=S)SC(=Nc3ccccc3)C2=Nc2ccccc2)cc1 | > 100 µM | –
74 | Cc1cc(-c2ncc(CC(=O)Nc3ccc(-c4cnccn4)cn3)cc2C)ccn1 | > 100 µM | 79.3 µM
75 | CC(=O)O/C=C(/C=C/OC(C)=O)C(C/C=C(\C)C#CC=C(C)C)OC(C)=O (stereo not drawn) | > 100 µM | –

Row | SMILES | TGI | GI50
76 | Brc1ccc(N=NN2CCCCC2)cc1 | > 100 µM | –
77 | CCN(CC)Cc1nc2sc3c(c2c(=O)n1-c1ccccc1)CCCC3 | > 100 µM | –
78 | Nc1nc(SCc2ccccn2)c2ncn(C3CCCC3)c2n1 | > 100 µM | –
79 | CCOC(=O)C(=O)Nc1nc2c(s1)C(=O)c1ccccc1C2=O | 30.3 µM | –
80 | CN1CCN(CN2C(=O)C3C4C=CC(C3C2=O)C2C3C(=O)N(CN5CCN(C)CC5)C(=O)C3C42)CC1 (stereo not drawn) | > 100 µM | 43.1 µM and > 64.2 µM and > 100 µM
81 | COc1ccc(N(C(=O)Nc2ccc(Cl)c(Cl)c2)c2ccccc2)cc1 | > 10 µM | –
82 | CC(=O)OC(Cc1cc(C=C(C(F)(F)F)C(F)(F)F)cc(C)n1)(C(F)(F)F)C(F)(F)F | 4.02 µM | –
83 | Cc1ccc(S(=O)(=O)N/C(=C\C=C\c2ccccc2)C(=O)C(C)(C)C)cc1 | 84.2 µM | –
84 | CCc1cccc(C(C)C)c1NC(=O)C(=O)C(Cc1nc2ccccc2[nH]c1=O)C(=O)OC (stereo not drawn) | > 100 µM | –
85 | CC(=O)NCCCCNCCCNC(C)=O | > 100 µM | –
86 | O=C(O)c1c(-c2cccc3ccccc23)sc(-c2cccc3ccccc23)c1C(=O)O | > 100 µM | –
87 | N=C(N)SCCON1C(=O)c2ccccc2C1=O | > 100 µM | –
88 | Cc1ccc2[nH]cc(-c3nc(-c4c[nH]c5ncccc45)cs3)c2c1 | > 100 µM | > 100 µM
89 | O=c1c2ccccc2[nH]c(=S)n1-c1ccc(Br)cc1 | > 100 µM | –
90 | COC(=O)c1cc(C)ccc1CC(Cc1cccc(C)c1)C(=O)OC (stereo not drawn) | > 100 µM | –
91 | COc1ccc(-c2nn3ncccc3c2-c2ccnc(Nc3ccc(Cl)c(C(F)(F)F)c3)n2)cc1 | > 25 µM | > 21.6 µM
92 | Cc1cc2c(cc1Cl)Sc1nnc(Nc3ccccc3)n1S2(=O)=O | 49.5 µM | –
93 | O=C(CSc1nc2ccccc2[nH]1)Nc1ccc(-c2nc3ccccc3s2)c(Cl)c1 | > 100 µM | 5.44 µM
94 | COc1cc([C@H]2c3cc4c(cc3O[C@@]3(O)COC(=O)[C@@H]23)OCO4)cc(OC)c1OC | > 100 µM | –
95 | N#CCC(=O)Nc1cccc(C(F)(F)F)c1 | > 100 µM | –
96 | CC1(C)OP23(NC(=O)OC2(C(F)(F)F)c2ccccc2O3)OC1(C)C (stereo not drawn) | > 100 µM | –
97 | COC(=O)C1CC2(CC3=C1CCCC3)OCCO2 (stereo not drawn) | > 100 µM | –

Source: PubChem BioAssay (NCI)
